These are yes or no findings as the source states them, for the method shown. In cells and extracts the contact can be indirect. Some results given as binding are weak or reduced against the parent protein; the word gives no strength. Values belong to the substance of their own block, whether it stands above or below them.
Legend:
[1] = target: HP1α in cells transfected with His-tagged KLF11 (UniProt P45973); assay: co-IP; immunoprecipitation with an HP1α-specific antibody from cells transfected with His-tagged KLF11 WT or KLF11ΔHP1; empty vector as negative control
[2] = target: GST-HP1α (heterochromatin protein 1 alpha) (human) (UniProt P45973); assay: pull-down; GST pulldown: purified GST-HP1 fusion proteins as bait, 35S-labelled in vitro translated KLF11 proteins as prey; phosphorimage read-out; GST alone as negative control; only the target purified
[3] = target: GST-HP1β (heterochromatin protein 1 beta) (human) (UniProt P83916); assay: as above
[4] = target: GST-HP1γ (heterochromatin protein 1 gamma) (human) (UniProt Q13185); assay: as above
[5] = target: Endogenous HP1α (human (endogenous in BxPC3, Panc1, PL45)) (UniProt P45973); assay: co-IP; immunoprecipitation with an HP1α-specific antibody from BxPC3 nuclear extracts, Western blot with a KLF11-specific antibody; mouse IgG as negative control; both proteins endogenous
[6] = target: Endogenous HP1α (human (endogenous in BxPC3, Panc1, PL45)) (UniProt P45973); assay: co-IP; endogenous HP1α immunoprecipitation from nuclear lysates of Panc1 and PL45 cells; data not shown
[7] = target: EYFP(2)-HP1α (C-terminal EYFP portion fused to HP1α) (human) (UniProt P45973); assay: split reporter; BiFC: cells co-transfected with EYFP(1) and EYFP(2) expression vectors, confocal microscopy after 48 h
[8] = target: His-tagged KLF11ΔHP1 (human) (UniProt O14901); assay: co-IP; immunoprecipitation of the His-tagged KLF11ΔHP1 deletion mutant, blots for Sin3a and p300

Sequences of proteins named here, by UniProt entry; tags and fusion partners are left off. A change or cut given only in a name is not applied to a line headed by its entry. A line that says so, or that is headed by a name, gives the form on record, which may keep a tag or linker. Residues count along the entry.
UniProt P45973: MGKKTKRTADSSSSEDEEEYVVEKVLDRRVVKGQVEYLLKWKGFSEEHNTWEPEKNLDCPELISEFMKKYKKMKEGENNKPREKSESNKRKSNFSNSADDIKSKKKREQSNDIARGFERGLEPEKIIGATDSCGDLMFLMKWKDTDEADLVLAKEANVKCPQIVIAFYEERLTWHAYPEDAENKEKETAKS
UniProt P83916: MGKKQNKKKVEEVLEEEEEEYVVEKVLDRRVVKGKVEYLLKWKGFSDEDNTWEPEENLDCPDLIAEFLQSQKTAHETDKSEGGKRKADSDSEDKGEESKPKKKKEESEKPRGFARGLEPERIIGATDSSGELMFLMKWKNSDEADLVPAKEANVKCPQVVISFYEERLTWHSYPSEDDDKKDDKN
UniProt Q13185: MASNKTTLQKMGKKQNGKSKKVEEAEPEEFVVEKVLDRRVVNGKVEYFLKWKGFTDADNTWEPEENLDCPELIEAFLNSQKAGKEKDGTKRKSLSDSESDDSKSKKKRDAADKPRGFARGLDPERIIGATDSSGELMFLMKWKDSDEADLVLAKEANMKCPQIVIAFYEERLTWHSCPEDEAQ
UniProt O14901: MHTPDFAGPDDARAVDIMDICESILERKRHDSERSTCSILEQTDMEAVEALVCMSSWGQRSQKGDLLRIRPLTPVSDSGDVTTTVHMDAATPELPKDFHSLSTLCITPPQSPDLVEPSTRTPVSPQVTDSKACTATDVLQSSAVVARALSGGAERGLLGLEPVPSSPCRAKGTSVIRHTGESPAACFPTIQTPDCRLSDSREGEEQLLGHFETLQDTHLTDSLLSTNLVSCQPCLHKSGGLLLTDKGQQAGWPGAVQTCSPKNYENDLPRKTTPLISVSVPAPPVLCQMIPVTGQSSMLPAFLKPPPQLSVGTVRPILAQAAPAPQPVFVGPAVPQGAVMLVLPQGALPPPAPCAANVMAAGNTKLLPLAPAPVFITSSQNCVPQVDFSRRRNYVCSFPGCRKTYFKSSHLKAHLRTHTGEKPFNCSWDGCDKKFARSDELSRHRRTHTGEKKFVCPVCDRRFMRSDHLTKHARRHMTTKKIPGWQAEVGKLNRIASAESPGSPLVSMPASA
EYFP(1)-KLF11 (N-terminal EYFP portion fused to KLF11): residues 18-512 of O14901
KLF11 (amino acids 2–486) mutant, KLF11ΔHP1, in vitro translated: residues 19-503 of O14901
KLF11 (42–495), in vitro translated: residues 59-512 of O14901
KLF11 (162–495), in vitro translated: residues 179-512 of O14901
KLF11 (379–495), in vitro translated: residues 396-512 of O14901
UniProt Q09472: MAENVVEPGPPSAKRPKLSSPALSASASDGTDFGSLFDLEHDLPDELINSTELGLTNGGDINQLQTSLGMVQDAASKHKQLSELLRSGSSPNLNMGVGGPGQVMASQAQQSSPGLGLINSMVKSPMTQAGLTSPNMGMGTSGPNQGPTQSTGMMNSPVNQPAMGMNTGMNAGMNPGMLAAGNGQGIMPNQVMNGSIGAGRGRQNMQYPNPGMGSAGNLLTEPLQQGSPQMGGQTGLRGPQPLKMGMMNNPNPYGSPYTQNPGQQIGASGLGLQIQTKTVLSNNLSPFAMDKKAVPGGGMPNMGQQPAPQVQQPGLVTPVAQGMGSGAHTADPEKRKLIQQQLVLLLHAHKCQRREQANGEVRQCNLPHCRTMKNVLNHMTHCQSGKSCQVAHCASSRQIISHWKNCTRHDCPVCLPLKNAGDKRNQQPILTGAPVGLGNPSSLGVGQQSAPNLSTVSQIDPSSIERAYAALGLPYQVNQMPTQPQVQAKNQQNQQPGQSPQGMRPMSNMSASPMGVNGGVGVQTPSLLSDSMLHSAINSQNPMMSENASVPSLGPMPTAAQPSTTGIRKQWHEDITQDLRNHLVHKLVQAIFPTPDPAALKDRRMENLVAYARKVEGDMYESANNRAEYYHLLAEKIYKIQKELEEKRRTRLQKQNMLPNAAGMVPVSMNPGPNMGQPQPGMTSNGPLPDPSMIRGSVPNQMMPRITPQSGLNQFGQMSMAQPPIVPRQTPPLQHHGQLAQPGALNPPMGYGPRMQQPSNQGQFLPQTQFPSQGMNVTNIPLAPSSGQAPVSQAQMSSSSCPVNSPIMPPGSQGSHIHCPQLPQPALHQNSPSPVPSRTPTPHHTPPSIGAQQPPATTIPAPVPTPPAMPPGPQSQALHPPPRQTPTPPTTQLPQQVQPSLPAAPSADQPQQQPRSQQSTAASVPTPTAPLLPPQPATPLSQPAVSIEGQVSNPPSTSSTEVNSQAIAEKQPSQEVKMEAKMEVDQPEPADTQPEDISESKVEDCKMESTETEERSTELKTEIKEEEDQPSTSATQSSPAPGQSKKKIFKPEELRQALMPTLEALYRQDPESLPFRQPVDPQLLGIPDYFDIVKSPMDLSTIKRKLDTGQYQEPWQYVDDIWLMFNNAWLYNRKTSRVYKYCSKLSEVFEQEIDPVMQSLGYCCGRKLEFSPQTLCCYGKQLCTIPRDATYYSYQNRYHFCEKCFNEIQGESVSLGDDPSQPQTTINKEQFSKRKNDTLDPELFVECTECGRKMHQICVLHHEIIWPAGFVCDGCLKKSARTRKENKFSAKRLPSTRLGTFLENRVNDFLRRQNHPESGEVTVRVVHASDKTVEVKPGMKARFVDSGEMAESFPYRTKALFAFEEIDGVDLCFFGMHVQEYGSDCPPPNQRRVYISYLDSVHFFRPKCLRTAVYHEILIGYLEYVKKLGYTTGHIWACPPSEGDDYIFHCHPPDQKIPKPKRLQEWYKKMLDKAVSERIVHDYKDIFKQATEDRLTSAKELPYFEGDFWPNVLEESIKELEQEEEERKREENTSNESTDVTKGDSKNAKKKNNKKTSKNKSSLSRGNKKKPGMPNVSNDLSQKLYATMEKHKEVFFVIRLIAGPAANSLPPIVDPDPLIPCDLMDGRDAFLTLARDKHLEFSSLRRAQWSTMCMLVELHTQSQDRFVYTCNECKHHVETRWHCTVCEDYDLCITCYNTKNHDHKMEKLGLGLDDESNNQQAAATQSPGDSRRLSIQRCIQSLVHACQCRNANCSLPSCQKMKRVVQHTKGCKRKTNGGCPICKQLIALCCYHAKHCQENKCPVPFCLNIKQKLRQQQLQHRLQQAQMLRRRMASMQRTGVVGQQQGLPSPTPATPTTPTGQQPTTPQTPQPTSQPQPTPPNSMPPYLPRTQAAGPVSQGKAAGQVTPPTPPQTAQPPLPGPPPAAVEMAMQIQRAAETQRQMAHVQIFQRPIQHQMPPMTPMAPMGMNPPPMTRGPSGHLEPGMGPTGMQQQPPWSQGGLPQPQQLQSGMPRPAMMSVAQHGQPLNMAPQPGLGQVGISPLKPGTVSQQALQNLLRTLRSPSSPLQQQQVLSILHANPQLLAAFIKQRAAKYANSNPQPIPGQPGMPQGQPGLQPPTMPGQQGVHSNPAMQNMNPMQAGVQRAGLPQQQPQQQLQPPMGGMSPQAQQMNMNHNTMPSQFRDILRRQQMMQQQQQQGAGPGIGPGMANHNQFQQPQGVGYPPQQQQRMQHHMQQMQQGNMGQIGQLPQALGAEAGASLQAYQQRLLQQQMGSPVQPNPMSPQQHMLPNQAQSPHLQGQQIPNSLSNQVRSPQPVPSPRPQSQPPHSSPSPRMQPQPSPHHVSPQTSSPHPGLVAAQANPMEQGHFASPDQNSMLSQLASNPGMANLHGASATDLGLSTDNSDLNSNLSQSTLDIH

binding [1]: no binding
Substance: His-tagged KLF11ΔHP1 (from UniProt O14901-2 2-486) (domain or fragment)

binding [2]: binds
Substance: KLF11 (162–495), in vitro translated (from UniProt O14901-2 162-495) (domain or fragment)

binding [3]: binds
binding [4]: binds
binding [2]: binds
Substance: Krüppel-like factor 11 (KLF11), 35S-labelled, in vitro translated (from UniProt O14901-2 1-495)

binding [5]: binds
binding [6]: binds
Substance: Endogenous KLF11 (from UniProt O14901 1-512)

binding [1]: binds
Substance: His-tagged KLF11 wild type (from UniProt O14901-2 1-495)

binding [2]: binds
Substance: KLF11 (379–495), in vitro translated (from UniProt O14901-2 379-495) (domain or fragment)

binding [7]: binds
Substance: EYFP(1)-KLF11 (N-terminal EYFP portion fused to KLF11) (from UniProt O14901-2 1-495)

binding [2]: binds
Substance: KLF11 (42–495), in vitro translated (from UniProt O14901-2 42-495) (domain or fragment)

binding [8]: binds
Substance: p300 (from UniProt Q09472 1-2414)

binding [2]: no binding
Substance: KLF11 (amino acids 2–486) mutant, KLF11ΔHP1, in vitro translated (from UniProt O14901-2 2-486) (domain or fragment)

Source: publication PMC3339955
